Measured values: the supplement of paper PMC4967469

How the values were obtained:
Test in all cases: Viability of human cancer cell lines after 72 h of drug (GDSC screen)
[1] = compound: COc1cc2nccc(Oc3ccc(NC(=O)C4(C(=O)Nc5ccc(F)cc5)CC4)cc3)c2cc1OC [XL-184]; details: top dose 5.12 µM; top dose inferred
Description: (§1)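 Human cancer cell lines in 384-well plates, medium with 10% serum, drug for 72 h over a 256-fold dose range (nine 2-fold or five 4-fold steps up to the top dose). Adherent lines were fixed and stained with the nucleic acid dye Syto60, suspension lines read with resazurin; signal relative to control wells, capped at 0 and 100%. One two-parameter sigmoid per drug and line, fitted in a mixed model over all curves with the slope shared within a line.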

[2] = compound: C=CC(=O)Nc1cc(NC(=O)c2ccc(C)c(NC(=O)c3ccno3)c2)cc(C(F)(F)F)c1 [QL-XI-92]; details: top dose 10.24 µM; top dose inferred
Description: as §1

[3] = compound: O=c1cc(N2CCOCC2)oc2c(-c3cccc4c3sc3ccccc34)cccc12 [NU-7441]; details: top dose 2 µM; top dose inferred
Description: as §1

[4] = compound: N=C(N)NC(=N)NCCc1ccccc1 [Phenformin]; details: top dose 4000 µM; top dose inferred
Description: as §1

[5] = compound: CNCc1ccc(-c2[nH]c3cc(F)cc4c3c2CCNC4=O)cc1 [AG-014699]; details: top dose 5 µM; top dose inferred
Description: as §1

[6] = compound: COc1cc2ncnc(Nc3cc(Br)c(O)c(Br)c3)c2cc1OC [WHI-P97]; details: top dose 10.24 µM; top dose inferred
Description: as §1

[7] = compound: O=c1cc(CN2CCOCC2)occ1OCCCCCSc1ccnc2cc(C(F)(F)F)ccc12 [EHT 1864]; details: top dose 10 µM; top dose inferred
Description: as §1

[8] = compound: COc1cc2ncnc(Nc3ccc(F)c(Cl)c3)c2cc1OCCCN1CCOCC1 [Gefitinib]; details: top dose 0.5 µM
Description: as §1

Row | Cell Line | AUC [1] | IC50 [1] [µM] | AUC [2] | IC50 [2] [µM] | AUC [3] | IC50 [3] [µM] | AUC [4] | IC50 [4] [µM] | AUC [5] | IC50 [5] [µM] | AUC [6] | IC50 [6] [µM] | AUC [7] | IC50 [7] [µM] | AUC [8] | IC50 [8] [µM]
1 | OV-17R (ovary, adherent) | 0.881 | > 5.12 | 0.959 | > 10.2 | 0.956 | > 2 | 0.945 | > 4000 | 0.98 | > 5 | 0.975 | > 10.2 | 0.965 | > 10 | 0.981 | > 0.5
2 | OV-56 (ovary, adherent) | 0.929 | > 5.12 | 0.972 | > 10.2 | 0.944 | > 2 | 0.989 | > 4000 | 0.976 | > 5 | 0.968 | > 10.2 | 0.985 | > 10 | 0.986 | > 0.5
3 | OVCA420 (ovary, adherent) | 0.881 | > 5.12 | 0.98 | > 10.2 | 0.961 | > 2 | 0.982 | > 4000 | 0.982 | > 5 | 0.905 | > 10.2 | 0.965 | > 10 | 0.833 | 0.488
4 | OVCA433 (ovary, adherent) | 0.932 | > 5.12 | 0.979 | > 10.2 | 0.951 | > 2 | 0.976 | > 4000 | 0.976 | > 5 | 0.964 | > 10.2 | 0.959 | > 10 | 0.948 | > 0.5
5 | OVK-18 (ovary, adherent) | 0.985 | > 5.12 | 0.963 | > 10.2 | 0.907 | > 2 | 0.983 | > 4000 | 0.953 | > 5 | 0.911 | > 10.2 | 0.922 | > 10 | 0.965 | > 0.5
6 | PEO1 (ovary, adherent) | 0.918 | > 5.12 | 0.985 | > 10.2 | 0.971 | > 2 | 0.937 | > 4000 | 0.987 | > 5 | 0.986 | > 10.2 | 0.986 | > 10 | 0.981 | > 0.5
7 | QGP-1 (pancreas, adherent) | 0.921 | > 5.12 | 0.968 | > 10.2 | 0.965 | > 2 | 0.65 | 845 | 0.972 | > 5 | 0.97 | > 10.2 | 0.979 | > 10 | 0.979 | > 0.5
8 | RCC-AB (kidney, adherent) | 0.882 | > 5.12 | 0.863 | > 10.2 | 0.921 | > 2 | 0.815 | 3080 | 0.979 | > 5 | 0.893 | > 10.2 | 0.925 | > 10 | 0.981 | > 0.5
9 | RCC-ER (kidney, adherent) | 0.985 | > 5.12 | 0.943 | > 10.2 | 0.932 | > 2 | 0.948 | > 4000 | 0.986 | > 5 | 0.985 | > 10.2 | 0.979 | > 10 | 0.974 | > 0.5
10 | RCC-FG2 (kidney, adherent) | 0.93 | > 5.12 | 0.944 | > 10.2 | 0.837 | 1.89 | 0.959 | > 4000 | 0.977 | > 5 | 0.964 | > 10.2 | 0.935 | > 10 | 0.92 | > 0.5
11 | RCC-JF (kidney, adherent) | 0.942 | > 5.12 | 0.866 | > 10.2 | 0.915 | > 2 | 0.917 | > 4000 | 0.931 | > 5 | 0.872 | > 10.2 | 0.951 | > 10 | 0.818 | 0.327
12 | RCC-JW (kidney, adherent) | 0.941 | > 5.12 | 0.81 | 5.57 | 0.925 | > 2 | 0.97 | > 4000 | 0.985 | > 5 | 0.946 | > 10.2 | 0.962 | > 10 | 0.948 | > 0.5
13 | RCC-MF (kidney, adherent) | 0.929 | > 5.12 | 0.82 | 8.29 | 0.89 | > 2 | 0.973 | > 4000 | 0.98 | > 5 | 0.864 | > 10.2 | 0.878 | > 10 | 0.859 | > 0.5
14 | SK-GT-4 (oesophagus, adherent) | 0.927 | > 5.12 | 0.948 | > 10.2 | 0.93 | > 2 | 0.948 | > 4000 | 0.972 | > 5 | 0.96 | > 10.2 | 0.965 | > 10 | 0.917 | > 0.5
15 | SK-MEL-5 (melanoma, adherent) | 0.981 | > 5.12 | 0.978 | > 10.2 | 0.959 | > 2 | 0.964 | > 4000 | 0.983 | > 5 | 0.975 | > 10.2 | 0.918 | > 10 | 0.983 | > 0.5
16 | SK-MG-1 (glioma, adherent) | 0.966 | > 5.12 | 0.987 | > 10.2 | 0.957 | > 2 | 0.969 | > 4000 | 0.955 | > 5 | 0.987 | > 10.2 | 0.965 | > 10 | 0.986 | > 0.5
17 | SNU-61 (large intestine, adherent) | 0.965 | > 5.12 | 0.943 | > 10.2 | 0.985 | > 2 | 0.976 | > 4000 | 0.985 | > 5 | 0.956 | > 10.2 | 0.935 | > 10 | 0.915 | > 0.5

The IC50 comes from the fitted curve, where viability falls to half of the control; where the fit passes the top or lowest dose, that dose stands as a limit. The AUC spans the tested range (256-fold, ending at the top dose) of the same fit: 1 means no effect, lower means more sensitive. For some assays here: Where the top dose is marked as inferred, it was derived from the fitted curves, not read from the paper.
